Results taken from PubChem BioAssay AID1768 (National Center for Advancing Translational Sciences (NCATS), 2009).
The campaign covered roughly 270,000 compounds. About 620 (0.23%) were called active. The shares of active, inactive and inconclusive entries below differ from those in the screen. Calls follow the shape of the dose curve; as a rule, active = well fitted inhibition curve with a large enough effect in the polarisation, with a control signal flat (not every such curve was filed as active); inconclusive = small, poorly fitted or top-dose-only effect, or effect the other way, or a change in a side signal; inactive = no such curve, though single readings can be large or run the other way; the % refers to the polarisation. Potencies beside an inconclusive call are fits to weak or partial responses and may not hold up. “Side channel” marks fits to a control or component signal instead of the main read-out.
Potency is read from the fitted curve at half-maximal effect; tags tell the direction and shape of the fitted curve or compound fluorescence and quenching.

The compounds below were run against Menin (Homo sapiens) (UniProt O00255) (assay: qHTS Assay for Inhibitors Targeting the Menin-MLL Interaction in MLL Related Leukemias: Competition With Texas Red Labeled MLL-derived Mutant Peptide). Conditions: fluorescence polarization; series mostly up to 61.6 µM.
UniProt O00255, sequence (O00255 whole entry, looked up): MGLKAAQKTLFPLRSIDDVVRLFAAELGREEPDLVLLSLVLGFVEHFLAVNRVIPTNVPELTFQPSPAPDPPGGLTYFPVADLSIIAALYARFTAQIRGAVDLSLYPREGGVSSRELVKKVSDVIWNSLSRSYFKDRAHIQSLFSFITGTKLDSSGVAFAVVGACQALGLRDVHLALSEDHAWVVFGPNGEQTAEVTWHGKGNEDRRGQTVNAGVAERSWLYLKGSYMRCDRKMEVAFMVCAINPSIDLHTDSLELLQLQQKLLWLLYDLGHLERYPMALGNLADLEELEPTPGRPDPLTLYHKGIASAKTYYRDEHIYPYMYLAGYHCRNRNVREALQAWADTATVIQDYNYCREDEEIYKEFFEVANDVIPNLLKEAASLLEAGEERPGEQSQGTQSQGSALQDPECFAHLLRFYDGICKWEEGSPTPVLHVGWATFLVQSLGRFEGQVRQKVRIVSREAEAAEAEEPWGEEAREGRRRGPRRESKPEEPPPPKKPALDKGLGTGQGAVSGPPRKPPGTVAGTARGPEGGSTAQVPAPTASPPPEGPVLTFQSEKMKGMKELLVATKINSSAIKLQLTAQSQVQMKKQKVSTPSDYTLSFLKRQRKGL
In the case of CN(C)CCNC(=O)Nc1cccc(Cl)c1Cl, the Potency is reported as inconclusive: 39.8 µM [fluorescent, side channel, single point].
O=C(Nc1ccccn1)c1ccc(S(=O)(=O)c2ccc(Cl)cc2)cc1 was tested, and the Potency was inconclusive: 35.5 µM [quencher, side channel, single point].
With CC1(C)CCN2CCC(C)(C)c3c(O)ccc1c32 the Potency was inconclusive: 12.6 µM [fluorescent, side channel, partial curve].
In the case of O=C(N/N=C/c1cc(Br)ccc1O)Nc1ccccc1, the Potency is reported as inconclusive: 20 µM [quencher, single point].
With CC(C)CN1C(=O)c2ccc(NC(=O)c3ccccc3F)cc2C1=O the Potency was “inactive”.
CC(c1ccccc1)c1nnc(NC(=O)Nc2ccccc2)s1 (configuration not stated) was tested, and the Potency was inconclusive: 31.6 µM [quencher, side channel, single point].
For COc1ccc2cc(-c3cc(C(=O)OCC(=O)NC4CCS(=O)(=O)C4)c4ccccc4n3)ccc2c1 (configuration not stated), the Potency was inconclusive: 1.78 µM [quencher, side channel, full curve].
In the case of COc1cccc(NC(=O)C2CC2(c2cccc(OC)c2)c2cccc(OC)c2)c1 (configuration not stated), the Potency is reported as inconclusive: 39.8 µM [quencher, side channel, single point].
In the case of O=C1Nc2ccc(Br)cc2/C1=C/c1ccc(C(=O)O)cc1, the Potency is reported as inconclusive: 17.8 µM [inhibitor, partial curve].
For Nc1c(S(=O)(=O)O)cc(Nc2cccc3ccccc23)c2c1C(=O)c1ccccc1C2=O, the Potency was inconclusive: 7.94 µM [quencher, side channel, full curve].
For CCc1nnc(NC(=O)CSc2nnc(Cc3ccccc3)n2-c2ccc(OC)cc2)s1, the Potency was inconclusive: 1.58 µM [fluorescent, side channel, full curve, poor fit].
In the case of O=C(c1ccc(CS(=O)Cc2ccccc2Cl)o1)N1CCN(c2cccc(Cl)c2)CC1 (configuration not stated), the Potency is reported as inconclusive: 3.55 µM [inhibitor, full curve].
With COC(=O)c1[nH]c2ccc(C)cc2c1NC(=O)CN1CCc2cc(OC)c(OC)cc2C1 the Potency was “inactive”.
For Cc1ccc(C)c2[nH]c(=O)c(CCNC(=O)CC(C)C)cc12, the Potency was inconclusive: 3.16 µM [inhibitor, partial curve].
COc1cc(SC#N)ccc1N=Cc1c(C)[nH]n(-c2ccc(C)cc2C)c1=O was tested, and the Potency was inconclusive: 31.6 µM [quencher, side channel, single point].
In the case of CCCCCCN1CC(=O)N2Cc3[nH]c4ccccc4c3C[C@H]2C1=O, the Potency is reported as “inactive”.
CC1CCCCN1S(=O)(=O)c1ccc(C(=O)Nc2nnc(C3CC3)o2)cc1 (configuration not stated) was tested, and the Potency was inconclusive: 14.1 µM [quencher, side channel, partial curve].
With CCCNc1nc(N2CCCC2)nc(N2CCCC2)n1 the Potency was inconclusive: 35.5 µM [fluorescent, side channel, partial curve, poor fit].
For COc1cccc(CNc2ccc(C(=O)O)cc2)c1OCc1ccccc1, the Potency was inconclusive: 12.6 µM [quencher, side channel, partial curve].
With O=C(Nc1nc(-c2ccccn2)cs1)c1cc(Cl)ccc1[N+](=O)[O-] the Potency was inconclusive: 11.2 µM [quencher, side channel, partial curve].
With O=C(Nc1ccc2c3c(cccc13)CC2)c1cccc([N+](=O)[O-])c1 the Potency was inconclusive: 31.6 µM [quencher, side channel, single point].
In the case of CCN(CC)CC#CCOC(c1ccccc1)c1ccccc1, the Potency is reported as inconclusive: 20 µM [fluorescent, side channel, partial curve].
Cc1ccc(O)c(/C=N/NC(=O)Cc2ccc(Cl)cc2)c1 was tested, and the Potency was inconclusive: 39.8 µM [inhibitor, single point].
In the case of Fc1ccc(N2CCN(c3nc(CN4CCOCC4)nc4scc(-c5ccccc5)c34)CC2)cc1, the Potency is reported as inconclusive: 7.08 µM [fluorescent, side channel, partial curve].
For CCOC(=O)c1c(NCC(C)C)c2ccccc2[nH]c1=O, the Potency was inconclusive: 8.91 µM [inhibitor, full curve, poor fit].
For Cc1nc(N2CCN(Cc3ccc4c(c3)OCO4)CC2)c2cc(-c3ccccc3)sc2n1, the Potency was “inactive”.
In the case of CCC(CO)(CO)N(CC(=O)Nc1ccc(OC)cc1)CC(=O)Nc1ccc(OC)cc1, the Potency is reported as inconclusive: 17.8 µM [quencher, side channel, partial curve].
Cc1cc(C(=O)N2CCN(C(c3ccccc3)c3ccccc3)CC2)on1 was tested, and the Potency was inconclusive: 22.4 µM [fluorescent, side channel, partial curve].
With Cc1[nH]n(-c2ccccc2)c(=O)c1/C=N/NC(=O)c1cccc([N+](=O)[O-])c1 the Potency was inconclusive: 8.91 µM [quencher, side channel, partial curve].
CC(=O)NC(Cc1ccc(F)c(F)c1)C(=O)NC1CCN(c2c(Cc3ccccc3)c(C)nc3ncnn23)CC1 (configuration not stated) was tested, and the Potency was inconclusive: 28.2 µM [quencher, side channel, partial curve].
COC(=O)c1cc(NS(=O)(=O)c2ccc(N3CCOCC3)c([N+](=O)[O-])c2)cc(C(=O)OC)c1 was tested, and the Potency was inconclusive: 39.8 µM [quencher, side channel, single point].
In the case of Fc1ccc(C2CC(c3cccs3)=NN2C(=S)Nc2ccccc2)cc1 (configuration not stated), the Potency is reported as inconclusive: 39.8 µM [inhibitor, single point].
In the case of Cc1ccc(-c2nc(Nc3ccc(O)cc3)c3ccccc3n2)cc1, the Potency is reported as inconclusive: 6.31 µM [quencher, side channel, partial curve].
CCOC(=O)Cc1csc(NC(=S)NC(=O)c2ccc(Cl)cc2)n1 was tested, and the Potency was inconclusive: 35.5 µM [inhibitor, single point].
With O=C(Nc1ccccc1C(=O)OCC(=O)c1c[nH]c2ccccc12)c1ccco1 the Potency was inconclusive: 39.8 µM [inhibitor, single point].
In the case of COc1cc(/C=C(\C#N)C(=O)Nc2nnc(C(F)(F)F)s2)ccc1OCc1ccc(C(F)(F)F)cc1C(F)(F)F, the Potency is reported as “inactive”.
With Cc1ccc2nc(Cl)c3cc(C(=O)N(CCN(C)C)Cc4ccco4)sc3c2c1 the Potency was inconclusive: 14.1 µM [fluorescent, side channel, partial curve].
For CCN(CC)CC(O)COc1ccc2c(c1)OCO2 (configuration not stated), the Potency was “inactive”.
O=[N+]([O-])c1ccc(/C=C/c2nc3ccc([N+](=O)[O-])cc3[nH]2)cc1 was tested, and the Potency was inconclusive: 44.7 µM [inhibitor, partial curve, poor fit].
With Cc1ccc(CN2C(=O)C3CCCN3c3ncccc32)cc1 (configuration not stated) the Potency was inconclusive: 11.2 µM [inhibitor, partial curve].
O=[N+]([O-])c1cccc2cn[nH]c12 was tested, and the Potency was inconclusive: 7.08 µM [inhibitor, single point].
In the case of C#CC(CC)(CC)NC(=O)c1nn(-c2ccccc2Cl)c(C)cc1=O, the Potency is reported as inconclusive: 8.91 µM [inhibitor, partial curve].
For O=C(N=Nc1c(O)[nH]c2ccccc12)c1ccc2c(c1)OCO2, the Potency was inconclusive: 28.2 µM [quencher, side channel, single point].
N#Cc1cc(N)c(Nc2ccccc2)cc1C#N was tested, and the Potency was inconclusive: 10 µM [quencher, side channel, partial curve].
For CCOC(=O)N1CCN(C(=O)c2cc(COc3cccc(C(F)(F)F)c3)on2)CC1, the Potency was inconclusive: 10 µM [inhibitor, full curve, poor fit].
In the case of Cc1ccc(-c2csc(NC(=O)c3cccc(N4C(=O)CCC4=O)c3)n2)o1, the Potency is reported as inconclusive: 28.2 µM [quencher, side channel, single point].
CCn1cc(C(=O)NCCc2ccccc2)c(=O)c2cc(S(=O)(=O)N3CCCC3)ccc21 was tested, and the Potency was “inactive”.
For Cc1nnc(NC(=O)/C=C/c2ccco2)s1, the Potency was inconclusive: 39.8 µM [inhibitor, single point].
With COc1ccc(C(C(=O)Nc2ccc(C(C)C)cc2)N(Cc2ccco2)C(=O)CC2NC(=O)NC2=O)cc1 (configuration not stated) the Potency was “inactive”.
For COc1ccc(C2=NN(c3ccccc3)C(c3cn(CCC(=O)O)nc3-c3ccccc3)C2)cc1 (configuration not stated), the Potency was inconclusive: 12.6 µM [quencher, side channel, partial curve].
With C#Cc1ccc([C@@H]2C=C(C(=O)N3CCN(Cc4ccc5c(c4)OCO5)CC3)O[C@H](OCC)[C@H]2CCCO)cc1 the Potency was inconclusive: 2.82 µM [fluorescent, side channel, full curve].
In the case of O=C(NCc1ccc(-c2nc3ccccc3s2)cc1)c1cc2ccccc2o1, the Potency is reported as inconclusive: 28.2 µM [fluorescent, side channel, single point].
With COc1cccc(/C=C/c2ccc3ccccc3n2)c1OC(C)=O the Potency was inconclusive: 39.8 µM [quencher, side channel, single point].
With COC(=O)c1ccc(/C=C2\CCn3c2nc2cc(C(=O)O)ccc2c3=O)cc1 the Potency was “inactive”.
In the case of NNS(=O)(=O)c1ccc2c(c1)Cc1cc(S(=O)(=O)NN)ccc1-2, the Potency is reported as inconclusive: 39.8 µM [inhibitor, single point].
With CCc1cc(C(=O)N=Nc2c(O)[nH]c3c(Br)cc(Br)cc23)c2ccccc2n1 the Potency was inconclusive: 15.8 µM [quencher, side channel, partial curve].
With CCc1nc(Nc2ccccc2O)c2oc3ccccc3c2n1 the Potency was inconclusive: 15.8 µM [quencher, side channel, partial curve].
